Out of some 310,000 compounds screened, about 2,200 (0.71%) showed an effect of 50% or more. The effect is printed as a negative number. This is one part of the list.
What follows are compounds tested against human ether-à-go-go-related gene (hERG) potassium channel (human, UniProt Q12809) (assay: primary screen, population patch clamp on CHO cells stably expressing hERG).
human ether-à-go-go-related gene (hERG) potassium channel, sequence (Q12809 whole entry, looked up): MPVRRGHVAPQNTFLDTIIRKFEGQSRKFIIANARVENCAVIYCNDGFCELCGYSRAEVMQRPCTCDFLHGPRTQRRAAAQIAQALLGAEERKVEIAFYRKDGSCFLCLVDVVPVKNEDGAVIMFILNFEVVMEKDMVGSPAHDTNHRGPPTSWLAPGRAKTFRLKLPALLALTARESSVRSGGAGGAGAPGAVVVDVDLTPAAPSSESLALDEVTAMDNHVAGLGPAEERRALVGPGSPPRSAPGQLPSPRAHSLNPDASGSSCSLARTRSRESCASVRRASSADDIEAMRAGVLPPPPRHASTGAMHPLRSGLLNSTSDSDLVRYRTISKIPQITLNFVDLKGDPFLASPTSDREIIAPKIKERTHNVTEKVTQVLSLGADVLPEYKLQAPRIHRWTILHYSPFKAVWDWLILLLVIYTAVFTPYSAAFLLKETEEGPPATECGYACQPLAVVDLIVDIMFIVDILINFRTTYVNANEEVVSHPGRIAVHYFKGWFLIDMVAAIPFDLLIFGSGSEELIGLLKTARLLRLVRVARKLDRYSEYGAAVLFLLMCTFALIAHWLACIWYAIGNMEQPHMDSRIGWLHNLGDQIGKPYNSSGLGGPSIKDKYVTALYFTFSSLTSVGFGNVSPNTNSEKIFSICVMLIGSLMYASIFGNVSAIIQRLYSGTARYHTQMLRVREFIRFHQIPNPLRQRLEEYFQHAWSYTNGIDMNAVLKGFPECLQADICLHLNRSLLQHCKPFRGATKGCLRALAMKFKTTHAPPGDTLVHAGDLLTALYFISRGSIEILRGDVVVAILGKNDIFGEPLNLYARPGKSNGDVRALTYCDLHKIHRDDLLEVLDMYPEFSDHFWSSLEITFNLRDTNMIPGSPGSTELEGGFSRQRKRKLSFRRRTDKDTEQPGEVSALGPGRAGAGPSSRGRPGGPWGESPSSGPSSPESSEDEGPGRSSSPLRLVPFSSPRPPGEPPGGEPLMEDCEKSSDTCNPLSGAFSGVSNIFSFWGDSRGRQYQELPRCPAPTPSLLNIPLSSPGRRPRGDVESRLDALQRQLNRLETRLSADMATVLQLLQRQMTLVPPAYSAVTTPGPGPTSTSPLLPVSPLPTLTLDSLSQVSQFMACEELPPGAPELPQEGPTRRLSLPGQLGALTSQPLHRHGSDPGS

| SMILES | hERG current change (%, negative = inhibition) at 1uM |
| --- | --- |
| CCn1ncc(/C=N/NS(=O)(=O)c2ccc(Cl)cc2)c1C | -4.05% |
| Cc1ccc(C(OCC(O)CN2CCCCC2)c2ccccc2)cc1 (stereo not drawn) | -68.6% |
| OCC1(Cc2ccc(F)cc2)CCCN(CCCC(F)(F)F)C1 (stereo not drawn) | -0.727% |
| CCC(C)(C)C1CCC2(CC1)NC(=O)N(CC(=O)NCCc1c[nH]c3ccccc13)C2=O (stereo not drawn) | 3.45% |
| CN(CC(=O)Nc1ccc(Cl)cc1)Cc1cc(=O)n2ccsc2n1 | -3.04% |
| O=C(NCc1ccccc1Cl)c1ccncc1 | 12.3% |
| O=C(CN1C(=O)C2CC=CCC2C1=O)Nc1ccc(Br)cc1 (stereo not drawn) | -1.7% |
| C/C(=N\NC(=O)c1ccncc1)c1c(O)n(Cc2ccccc2)c(=O)[nH]c1=O | 17.5% |
| CCOC(=O)Cc1cc(=O)[nH]c(/N=C(\N)Nc2ccc(C)c(C)c2)n1 | 8.62% |
| Cc1c(C(=O)N2CCCC2)c(S(=O)(=O)N2CCCCC2)c(C)n1C | 5.32% |
| CC(C)C1CC(O)(C2(O)CCCCC2)ON1 (stereo not drawn) | 6.16% |
| CCOc1ccc(/C=N/n2c(SC)nnc(C(C)(C)C)c2=O)cc1 | 12.2% |
| CC(=O)Nc1ccccc1C(=O)C(=O)Nc1ccc(C(=O)N2CCOCC2)cc1 | 9.76% |
| C/C(=N/NS(=O)(=O)c1ccccc1)c1ccc(NC(=O)C2CC2)cc1 | 13.3% |
| COCCn1c(=O)[nH]c2cc(C(=O)NCCN3CCN(c4ccccc4F)CC3)ccc2c1=O | 12.2% |
| COc1ccc(N2CC(C(=O)NCCc3ccc(OC)c(OC)c3)CC2=O)cc1 (stereo not drawn) | -5.45% |
| Cc1csc(SCC(=O)Nc2sccc2C#N)n1 | 6.92% |
| NC12CCc3c(no[n+]3[O-])C1(O)CC(c1ccccc1)=[N+]2[O-] (stereo not drawn) | 16.3% |
| CNC(=S)Nc1cc(C(=O)N2CCCC2)ccc1N1CCCC1 | 2.01% |
| CC(=O)C1C2c3ccccc3OC1(C)N=c1s/c(=C/c3cn(C)nc3C)c(=O)n12 (stereo not drawn) | 5.83% |
| O=C(Nc1ccc(O)cc1)c1ccccc1OCc1ccccc1 | 16% |
| Cc1csc2c(=O)sc(NC(=O)c3ccc(F)cc3Cl)nc12 | 8.64% |
| CCN(CCCNC(=O)CNC(=O)c1nn(-c2ccc(OC)cc2)c(=O)c2ccccc12)c1cccc(C)c1 | 9.48% |

| SMILES | hERG current change (%, negative = inhibition) at 1uM |
| --- | --- |
| Cc1ccc(NC(=O)C2CCN(C(=O)c3ccccc3C)CC2)cc1 | 12.6% |
| CCOc1ccc(NC(=S)N2CCC(NC(=O)C3CCCCC3)CC2)cc1 | -5.73% |
| COc1cc(NC(=O)c2cc(-c3cccnc3)nc3ccc(Br)cc23)cc(OC)c1 | 5.26% |
| C[C@@H]1CC=C[C@H]2[C@H]1C(=O)N(Cc1ccccc1)[C@H]2c1ccc2ccccc2c1 | 8.96% |
| CCCCC(=O)Nc1ccc(N2CCN(C(=O)CC)CC2)cc1 | 6.35% |
| CCOC(=O)N1CCN(C(=S)NC)CC1 | 9.92% |
| COc1nc(NCCc2ccc(OC)c(OC)c2)nc(Nc2ccccc2)n1 | 7.37% |
| COc1ccc(Cn2ccnc2SCC(=O)NC2CCCC2)cc1 | 14.6% |
| Cn1c(-c2cccc([N+](=O)[O-])c2)cnc1NCc1cccc([N+](=O)[O-])c1.O=C(O)C(=O)O | -28.2% |
| Cc1ccc2nc(-c3ccc(NC(=O)c4ccco4)cc3)[nH]c2c1 | 9.44% |
| Br.CCn1c(=N)n(CC(=O)c2ccc(OC)cc2)c2ccccc21 | -0.629% |
| C/C(=N/Nc1nc(-c2ccc(Cl)cc2)cs1)c1cccs1 | 10.4% |
| COc1ccc(CCNC(=O)CCSc2nc(-c3ccco3)cc(C(F)(F)F)n2)cc1 | 8.38% |
| O=C(Nc1cn(-c2ccccc2)nc1-c1ccc(F)cc1)c1ccccc1 | 17.7% |
| Cc1ccc(C(C(=O)NC2CCCC2)N(Cc2cccs2)C(=O)CNC(=O)c2cccs2)o1 (stereo not drawn) | 6.98% |
| CCOc1ccc(CCNC(=O)CSc2nc3ncc(Cl)cc3[nH]2)cc1OCC | 9.08% |
| Oc1ccc(O)c(Cc2nc3ccccc3[nH]2)c1 | 0.773% |
| Cc1nc(N)sc1-c1csc(N(C)c2ccc(O)cc2)n1 | 6.5% |
| CC(=O)O.CC(=O)Oc1ccc2c(c1)OC(c1ccccc1)CC21CC(C)(C)NC(=O)N1 (stereo not drawn) | 9.35% |
| CCCCN=C1NC(=O)C(CC(=O)NCCc2ccc(OC)cc2)S1 (stereo not drawn) | 13.4% |
| COC(=O)Cn1cnc2c(C#N)c3n(c2c1=O)CCCC3 | -3.24% |
| CCCCCCN1CC(O)=C(c2nc3ccccc3[nH]2)C1=N | -7.01% |
| CC1(C)CC(=O)C(C(C2=C(O)CC(C)(C)CC2=O)c2ccc(Br)s2)C(=O)C1 (stereo not drawn) | 4.88% |

| SMILES | hERG current change (%, negative = inhibition) at 1uM |
| --- | --- |
| O=C(Cc1c(F)cccc1Cl)Nc1ccc(S(=O)(=O)NCC2CCCO2)cc1 (stereo not drawn) | 10% |
| N#Cc1ccc(N2C(=O)[C@@H]3C(C(=O)c4ccc5ccccc5n4)=NN[C@@H]3C2=O)cc1 | 11.7% |
| O=C(Nc1ccc([N+](=O)[O-])cc1)c1ccccc1F | -6.63% |
| Cc1csc(NC(=O)C(NS(=O)(=O)c2ccc(Br)s2)c2ccccc2)n1 (stereo not drawn) | 10.4% |
| Cc1nn2c(-c3ccncc3)ccnc2c1Br | 0.782% |
| COC(=O)[C@@H]1Cc2c([nH]c3ccccc23)C(C)N1C(=O)c1ccccc1 (stereo partly drawn) | 12.7% |
| COc1ccc(OCCN(C)Cc2c(O)ccc3ccccc23)cc1 | 17.1% |
| CCc1nnc(NC(=O)CCC(=O)Nc2ccc(Cl)cc2)s1 | 14.4% |
| COc1ccccc1N1CCN(C(=O)/C=C/c2cccs2)CC1 | 2.09% |
| CCCc1nnc(NC(=O)CCC(=O)NC2CCCCCC2)s1 | 5.87% |
| Cc1cc(C(=O)CCl)c(C)n1Cc1ccco1 | 6.53% |
| CC1CCCCC12NC(=O)N(CC(=O)c1ccc(Cl)s1)C2=O (stereo not drawn) | 5.11% |
| Cc1cccc(/C(N)=N/OC(=O)COc2ccc(Cl)c(C)c2)c1 | 11.8% |
| COc1cc(/C=C/C(=O)OCC(=O)NC(=O)NC(C)C)cc(OC)c1OC | 15.8% |
| CN1CCN(C(=O)/C(=C\c2cccnc2)NC(=O)c2cccc(Br)c2)CC1 | 21.6% |
| O=C(C1CCCN1C(=O)c1cccs1)N1CCc2ccccc21 (stereo not drawn) | 16.6% |
| COc1ccc(CCNS(=O)(=O)c2cccc(C)c2)cc1OC | 13.6% |
| CC(C)NS(=O)(=O)c1ccc(Br)c(C(=O)OC(C)C(=O)NC2CCCCC2C)c1 (stereo not drawn) | 13.8% |
| CN1CCC(=O)N([C@H](CC#N)c2ccccc2)CC1 | 16.3% |
| Cc1ccccc1NC(=O)Cc1nc(CN(C)CC(=O)Nc2cccc(F)c2)cs1 | -3.77% |
| COc1ccc(NS(=O)(=O)c2c(C)cc(C)cc2C)cn1 | 10.4% |
| Cc1cccc(CCN=C(N)NS(=O)(=O)c2ccccc2)c1 | 5.48% |
| O=C(c1ccc2c(c1)OCO2)N1CCN(c2cccc(C(F)(F)F)c2)CC1 | 4.94% |

| SMILES | hERG current change (%, negative = inhibition) at 1uM |
| --- | --- |
| COc1ccc(C(=O)Nc2ccc3c(c2)nc2n3CCSC2)cc1 | 0.827% |
| Cc1ccc(S(=O)(=O)NNc2nnc(C)c(=O)[nH]2)cc1 | 11.6% |
| COc1ccc(S(=O)(=O)N2CCC3(CC2)OCCN3S(=O)(=O)c2c(C)cc(C)cc2C)cc1 | 7.22% |
| Cc1ccc(O)c(C(=O)CC(=O)c2cccc(F)c2)c1 | 15.1% |
| Cn1cccc1Cc1nnc(SCC(=O)Nc2ccc(F)cc2F)n1-c1ccc(F)cc1 | -4.13% |
| Cc1ccsc1/C=N/NC(=O)CSCc1ccc(Cl)cc1 | 10.7% |
| CCN1C(=O)C2(SC(NC(C)=O)=NN2C(C)=O)c2cc(C)cc(C)c21 (stereo not drawn) | 10.2% |
| CC1=NN(C(N)=S)C(=O)C1N=Nc1c(C)n(C)n(-c2ccccc2)c1=O (stereo not drawn) | 11.3% |
| CCOc1ccc(-n2nc(C(=O)NC3CCCCC3)c3ccccc3c2=O)cc1 | 21.8% |
| O=C(NC1CCCCCCC1)c1ccco1 | -5.01% |
| Cc1csc(NC(=O)Cn2nc(C)c([N+](=O)[O-])c2C)n1 | 6.55% |
| CSc1ncc(C(=O)NCCCc2ccccc2)c(C)n1 | 4.27% |
| CCN(c1ccccc1)S(=O)(=O)c1ccc(OC)c(NC(=O)CN2C(=O)NC(C)(C)C2=O)c1 | 13.2% |
| CC(=O)N1N=C(c2cccc(O)c2)CC1c1cccs1 (stereo not drawn) | 16.9% |
| COc1ccccc1N1CCN(C(=O)C2CC2)CC1 | 14.2% |
| CCOc1ccccc1NC(=O)CSc1nnc(-c2ccco2)o1 | 8.2% |
| Cc1ccccc1CC1(CO)CCCN(C(=O)c2ccccc2Cl)C1 (stereo not drawn) | -70.4% |
| CN(C)Cc1nc2c(c(=O)[nH]1)C1(CCCCC1)Cc1ccccc1-2 | 3.54% |
| NC(=NCc1ccco1)NC(=O)c1ccccc1 | 27.5% |
| COCCCNc1nc2c(-c3cccc(C)c3)nnn2c2ccccc12 | 9.07% |
| COc1ccc(S(=O)(=O)CCC(=O)NCc2ccc(C)o2)cc1 | 4.48% |
